The other results are listed elsewhere or left out.
B1: Q9UKT9 (peptide)
chain: FRCPICGRAFTQKGNLLRHIKL
B2: Q9UKT9 (peptide)
chain: FLCEICGHFFTQKGNLLRHIKL
B3: Q9UKT9 (peptide)
chain: LWCPICGFDCTQKGNLLRHIKL
B4: Q9UKT9 (peptide)
chain: LICEICGFVCTQKGNLLRHIKL
B5: Q9UKT9 (peptide)
chain: FFCSVCGHIFTQKGNLLRHIKL
B6: Q9UKT9 (peptide)
chain: FACNQCGAFFTQKGNLLRHIKL
B7: Q9UKT9 (peptide)
chain: FACNQCGRFFTQKGNLLRHIKL
B8: Q9UKT9 (peptide)
chain: FKCEICGRQFTQKGNLLRHIKL
B9: Q9UKT9 (peptide)
chain: LDCNQCGFRCTQKGNLLRHIKL
B10: Q9UKT9 (peptide)
chain: FFCPICGHYFTQKGNLLRHIKL
B11: Q9UKT9 (peptide)
chain: FECDICGAEFTQKGNLLRHIKL
B12: Q9UKT9 (peptide)
chain: FACNICGAGFTQKGNLLRHIKL
B13: Q9UKT9 (peptide)
chain: FECDQCGAAFTQKGNLLRHIKL
B14: Q9UKT9 (peptide)
chain: FHCDICGACFTQKGNLLRHIKL
B15: Q9UKT9 (peptide)
chain: FHCNVCGARFTQKGNLLRHIKL
B16: Q9UKT9 (peptide)
chain: FWCEVCGAGFTQKGNLLRHIKL
B17: Q9UKT9 (peptide)
chain: FYCDQCGASFTQKGNLLRHIKL
B18: Q9UKT9 (peptide)
chain: LTCPICGFYCTQKGNLLRHIKL
B19: Q9UKT9 (peptide)
chain: FFCEICGRAFTQKGNLLRHIKL
B20: Q9UKT9 (peptide)
chain: LACEICGFCCTQKGNLLRHIKL
B21: Q9UKT9 (peptide)
chain: FICPVCGAIFTQKGNLLRHIKL
B22: Q9UKT9 (peptide)
chain: FGCNQCGHQFTQKGNLLRHIKL
B23: Q9UKT9 (peptide)
chain: FACEICGHKFTQKGNLLRHIKL
B24: Q9UKT9 (peptide)
chain: FQCPVCGAEFTQKGNLLRHIKL
B25: Q9UKT9 (peptide)
chain: FQCEICGAFFTQKGNLLRHIKL
B26: Q9UKT9 (peptide)
chain: FTCEICGREFTQKGNLLRHIKL
B27: Q9UKT9 (peptide)
chain: FICDVCGAMFTQKGNLLRHIKL
B28: Q9UKT9 (peptide)
chain: FKCEICGAHFTQKGNLLRHIKL
B29: Q9UKT9 (peptide)
chain: FLCNQCGAHFTQKGNLLRHIKL
B30: Q9UKT9 (peptide)
chain: FICSVCGHLFTQKGNLLRHIKL
B31: Q9UKT9 (peptide)
chain: FECNQCGHNFTQKGNLLRHIKL
B32: Q9UKT9 (peptide)
chain: FQCDQCGAKFTQKGNLLRHIKL
B33: Q9UKT9 (peptide)
chain: FNCEVCGARFTQKGNLLRHIKL
B34: Q9UKT9 (peptide)
chain: FMCDVCGAAFTQKGNLLRHIKL
B35: Q9UKT9 (peptide)
chain: FKCEICGHYFTQKGNLLRHIKL
B36: Q9UKT9 (peptide)
chain: FSCPVCGAPFTQKGNLLRHIKL
B37: Q9UKT9 (peptide)
chain: FYCNVCGAWFTQKGNLLRHIKL
B38: Q9UKT9 (peptide)
chain: FCCPICGACFTQKGNLLRHIKL
B39: Q9UKT9 (peptide)
chain: FWCEICGARFTQKGNLLRHIKL
B40: Q9UKT9 (peptide)
chain: FCCPQCGADFTQKGNLLRHIKL
B41: Q9UKT9 (peptide)
chain: FECSVCGHVFTQKGNLLRHIKL
B42: Q9UKT9 (peptide)
chain: FHCPICGRQFTQKGNLLRHIKL
B43: Q9UKT9 (peptide)
chain: FTCEQCGAPFTQKGNLLRHIKL
B44: Q9UKT9 (peptide)
chain: FICEICGAWFTQKGNLLRHIKL
B45: Q9UKT9 (peptide)
chain: FGCEICGHEFTQKGNLLRHIKL
B46: Q9UKT9 (peptide)
chain: FHCDVCGALFTQKGNLLRHIKL
B47: Q9UKT9 (peptide)
chain: FFCEVCGAKFTQKGNLLRHIKL
B48: Q9UKT9 (peptide)
chain: FNCPICGRTFTQKGNLLRHIKL
B49: Q9UKT9 (peptide)
chain: FACEICGAFFTQKGNLLRHIKL
B50: Q9UKT9 (peptide)
chain: FVCPICGAVFTQKGNLLRHIKL
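Also: jurkat cells carrying a lentiviral library of mutant zinc finger degrons fused to EGFP plus mCherry, mCherry+ cells FACS sorted, degron abundance counted by next-generation sequencing.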

These sequences were tested against no compound (DMSO) (assay: log2 fold change of degron read counts, EGFP-low vs EGFP+ sorted cells; higher = lower degron-EGFP level without compound (poor expression or instability)). Settings: compound: DMSO control; 18 h.
For B1, the “log2 fold change of degron read counts” value was -0.149. With B2 the “log2 fold change of degron read counts” value was -0.371. In the case of B3, the “log2 fold change of degron read counts” value is reported as 3.12. In the case of B4, the “log2 fold change of degron read counts” value is reported as -0.304. With B5 the “log2 fold change of degron read counts” value was 1.11. In the case of B6, the “log2 fold change of degron read counts” value is reported as 0.0206. B7 was tested, and the “log2 fold change of degron read counts” value was 0.768. For B8, the “log2 fold change of degron read counts” value was -2.67. For B9, the “log2 fold change of degron read counts” value was 0.767. In the case of B10, the “log2 fold change of degron read counts” value is reported as 0.712. For B11, the “log2 fold change of degron read counts” value was -1.97. For B12, the “log2 fold change of degron read counts” value was -0.587. B13 was tested, and the “log2 fold change of degron read counts” value was -2.64. B14 was tested, and the “log2 fold change of degron read counts” value was -0.104. With B15 the “log2 fold change of degron read counts” value was -0.148. With B16 the “log2 fold change of degron read counts” value was -0.748. B17 was tested, and the “log2 fold change of degron read counts” value was -1.94. With B18 the “log2 fold change of degron read counts” value was 1.25. B19 was tested, and the “log2 fold change of degron read counts” value was -0.973. With B20 the “log2 fold change of degron read counts” value was 0.267. With B21 the “log2 fold change of degron read counts” value was 1.04. With B22 the “log2 fold change of degron read counts” value was 0.71. For B23, the “log2 fold change of degron read counts” value was -1.11. In the case of B24, the “log2 fold change of degron read counts” value is reported as -1.23. For B25, the “log2 fold change of degron read counts” value was -1.6. With B26 the “log2 fold change of degron read counts” value was -2.8. B27 was tested, and the “log2 fold change of degron read counts” value was -0.68. For B28, the “log2 fold change of degron read counts” value was -2.04. For B29, the “log2 fold change of degron read counts” value was -0.581. For B30, the “log2 fold change of degron read counts” value was -0.0755. In the case of B31, the “log2 fold change of degron read counts” value is reported as -0.764. With B32 the “log2 fold change of degron read counts” value was -1.34. For B33, the “log2 fold change of degron read counts” value was 0.0393. With B34 the “log2 fold change of degron read counts” value was -1.11. In the case of B35, the “log2 fold change of degron read counts” value is reported as -1.2. For B36, the “log2 fold change of degron read counts” value was 0.261. For B37, the “log2 fold change of degron read counts” value was 1.11. For B38, the “log2 fold change of degron read counts” value was 0.175. For B39, the “log2 fold change of degron read counts” value was -0.918. With B40 the “log2 fold change of degron read counts” value was -1.19. In the case of B41, the “log2 fold change of degron read counts” value is reported as -1.32. For B42, the “log2 fold change of degron read counts” value was -1.05. In the case of B43, the “log2 fold change of degron read counts” value is reported as -1.47. For B44, the “log2 fold change of degron read counts” value was -0.533. In the case of B45, the “log2 fold change of degron read counts” value is reported as 0.27. With B46 the “log2 fold change of degron read counts” value was -0.93. For B47, the “log2 fold change of degron read counts” value was -1.86. In the case of B48, the “log2 fold change of degron read counts” value is reported as -0.244. For B49, the “log2 fold change of degron read counts” value was -0.563. For B50, the “log2 fold change of degron read counts” value was 0.0564.

— the supplement of paper PMC12645437, “Orthogonal IMiD-Degron Pairs Induce Selective Protein Degradation in Cells” (ACS Chemical Biology, 2025)
